Consider five molecules from PMC4697846.

For assay [1], the target named is T1, δ-sarcoglycan 283Q, full length (wild type) (human) (UniProt Q92629).
T1 sequence: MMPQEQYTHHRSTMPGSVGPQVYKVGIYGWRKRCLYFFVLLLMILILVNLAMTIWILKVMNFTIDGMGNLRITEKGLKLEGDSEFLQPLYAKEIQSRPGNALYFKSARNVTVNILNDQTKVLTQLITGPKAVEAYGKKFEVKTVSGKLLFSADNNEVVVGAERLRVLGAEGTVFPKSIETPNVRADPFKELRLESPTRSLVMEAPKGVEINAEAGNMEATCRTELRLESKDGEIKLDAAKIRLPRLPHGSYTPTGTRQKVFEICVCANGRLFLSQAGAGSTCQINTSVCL
Put plainly: co-IP; full-length δ-SG-283Q or δ-SG-283R separately co-expressed with each full-length DGC component in HEK293T cells; whole cell lysate immunoprecipitated with cognate antibodies, Western blot; 4 independent assays. For orientation: In western blotting, separated proteins are transferred to a membrane and probed.

Assay [2] deals with T2, δ-sarcoglycan 283R, full length (p.Q283R polymorphism, A848G) (human) (UniProt Q92629).
T2 sequence: T1 sequence with Q283R
The description is as above.

Changes are numbered by the printed parent chain. No constants are given. Whether binding was seen depends on the method and setting. Binding seen in cells or lysates may run through a third protein. Some entries that bind do so weakly or less than the wild type. For some of these results: Sequences can lack the tags named with a protein.

B1: β-sarcoglycan, full length (protein, UniProt Q16585 1-318)
chain: MAAAAAAAAEQQSSNGPVKKSMREKAVERRSVNKEHNSNFKAGYIPIDEDRLHKTGLRGRKGNLAICVIILLFILAVINLIITLVIWAVIRIGPNGCDSMEFHESGLLRFKQVSDMGVIHPLYKSTVGGRRNENLVITGNNQPIVFQQGTTKLSVENNKTSITSDIGMQFFDPRTQNILFSTDYETHEFHLPSGVKSLNVQKASTERITSNATSDLNIKVDGRAIVRGNEGVFIMGKTIEFHMGGNMELKAENSIILNGSVMVSTTRLPSSSSGDQLGSGDWVRYKLCMCADGTLFKVQVTSQNMGCQISDNPCGNTH
As for B1, the binding entry in assay [1] and in assay [2] was “binds” each time.

B2: α-sarcoglycan, full length (protein, UniProt Q16586 24-387)
chain: QQTTLHPLVGRVFVHTLDHETFLSLPEHVAVPPAVHITYHAHLQGHPDLPRWLRYTQRSPHHPGFLYGSATPEDRGLQVIEVTAYNRDSFDTTRQRLVLEIGDPEGPLLPYQAEFLVRSHDAEEVLPSTPASRFLSALGGLWEPGELQLLNVTSALDRGGRVPLPIEGRKEGVYIKVGSASPFSTCLKMVASPDSHARCAQGQPPLLSCYDTLAPHFRVDWCNVTLVDKSVPEPADEVPTPGDGILEHDPFFCPPTEAPDRDFLVDALVTLLVPLLVALLLTLLLAYVMCCRREGRLKRDLATSDIQMVHHCTIHGNTEELRQMAASREVPRPLSTLPMFNVHTGERLPPRVDSAQVPLILDQH
With B2, the binding entry in assay [1] and in assay [2] was “binds weakly” in each case.

B3: γ-sarcoglycan, full length (protein, UniProt Q13326 1-291)
chain: MVREQYTTATEGICIERPENQYVYKIGIYGWRKRCLYLFVLLLLIILVVNLALTIWILKVMWFSPAGMGHLCVTKDGLRLEGESEFLFPLYAKEIHSRVDSSLLLQSTQNVTVNARNSEGEVTGRLKVGPKMVEVQNQQFQINSNDGKPLFTVDEKEVVVGTDKLRVTGPEGALFEHSVETPLVRADPFQDLRLESPTRSLSMDAPRGVHIQAHAGKIEALSQMDILFHSSDGMLVLDAETVCLPKLVQGTWGPSGSSQSLYEICVCPDGKLYLSVAGVSTTCQEHNHICL
Take B3: the binding entry in assay [1] and in assay [2] was “binds” throughout.

B4: β-dystroglycan, full length (protein, UniProt Q14118 654-895)
chain: SIVVEWTNNTLPLEPCPKEQIAGLSRRIAEDDGKPRPAFSNALEPDFKATSITVTGSGSCRHLQFIPVVPPRRVPSEAPPTEVPDRDPEKSSEDDVYLHTVIPAVVVAAILLIAGIIAMICYRKKRKGKLTLEDQATFIKKGVPIIFADELDDSKPPPSSSMPLILQEEKAPLPPPEYPNQSVPETTPLNQDTMGEYTPLRDEDPNAPPYQPPPPFTAPMEGKGSRPKNMTPYRSPPPYVPP
B4: the binding result in assay [1] and in assay [2] was “no binding” each time.

B5: α-dystroglycan, full length (protein, UniProt Q14118 30-653)
chain: HWPSEPSEAVRDWENQLEASMHSVLSDLHEAVPTVVGIPDGTAVVGRSFRVTIPTDLIASSGDIIKVSAAGKEALPSWLHWDSQSHTLEGLPLDTDKGVHYISVSATRLGANGSHIPQTSSVFSIEVYPEDHSELQSVRTASPDPGEVVSSACAADEPVTVLTVILDADLTKMTPKQRIDLLHRMRSFSEVELHNMKLVPVVNNRLFDMSAFMAGPGNAKKVVENGALLSWKLGCSLNQNSVPDIHGVEAPAREGAMSAQLGYPVVGWHIANKKPPLPKRVRRQIHATPTPVTAIGPPTTAIQEPPSRIVPTPTSPAIAPPTETMAPPVRDPVPGKPTVTIRTRGAIIQTPTLGPIQPTRVSEAGTTVPGQIRPTMTIPGYVEPTAVATPPTTTTKKPRVSTPKPATPSTDSTTTTTRRPTKKPRTPRPVPRVTTKVSITRLETASPPTRIRTTTSGVPRGGEPNQRPELKNHIDRVDAWVGTYFEVKIPSDTFYDHEDTTTDKLKLTLKLREQQLVGEKSWVQFNSNSQLMYGLPDSSHVGKHEYFMHATDKGGLSAVDAFEIHVHRRPQGDRAPARFKAKFVGDPALVLNDIHKKIALVKKLAFAFGDRNCSTITLQNITRG
In the case of B5, the binding entry in assay [1] and in assay [2] was “no binding” throughout.
